Measurements: the supplement of paper PMC4604168 (melanoma cell lines)
This is one part of the list. Many values rest on one well or one pass, so single values are uncertain.

Assays:
Assay in all cases: cell count relative to DMSO control; melanoma cells; higher = more viable cells
Conditions in all cases: library dose: low library concentration; 72 h
[1] = tested on: WM115
[2] = tested on: WM1716
[3] = tested on: WM1745
[4] = tested on: WM3526
[5] = tested on: WM3619
[6] = tested on: WM451Lu
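Further: cell number obtained by counting DAPI-stained nuclei in high-throughput microscope images with image analysis software, screen run in 1,536-well plates.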

Row | Structure (SMILES) | cell count [1] | cell count [2] | cell count [3] | cell count [4] | cell count [5] | cell count [6]
1 | O=C(CCCCCCC(=O)Nc1ccccc1)NO [vorinostat] + C/C(O)=C(\C#N)C(=O)Nc1cc(Br)ccc1Br [LFM-A13] (first compound 0.08 µM, partner dose 2 µM) | 97.7% | 109% | 99.3% | 100% | 81.9% | 95.2%
2 | O=C(O)c1ccc2c(c1)nc(Nc1cccc(Cl)c1)c1ccncc12 + C/C(O)=C(\C#N)C(=O)Nc1cc(Br)ccc1Br [LFM-A13] (first compound 0.4 µM, partner dose 2 µM) | 99.3% | 86% | 87.1% | 71% | 97.6% | 81.3%
3 | Cc1cc(Nc2cc(N3CCN(C)CC3)nc(Sc3ccc(NC(=O)C4CC4)cc3)n2)n[nH]1 [Tozasertib] + C/C(O)=C(\C#N)C(=O)Nc1cc(Br)ccc1Br [LFM-A13] (first compound 0.006 µM, partner dose 2 µM) | 75.4% | 92.8% | 90.3% | 82.8% | 82.8% | 87.9%
4 | Nc1ccn([C@@H]2O[C@H](CO)[C@@H](O)C2(F)F)c(=O)n1 [gemcitabine] + O=C(Oc1ccc([N+](=O)[O-])cc1)N1CCC(C(O)(c2ccc3c(c2)OCO3)c2ccc3c(c2)OCO3)CC1 [JZL184] (first compound 0.0004 µM, partner dose 1 µM) | 97.6% | 100% | 57.3% | 111% | 78.7% | 116%
5 | Cc1cc(Nc2cc(N3CCN(C)CC3)nc(Sc3ccc(NC(=O)C4CC4)cc3)n2)n[nH]1 [Tozasertib] + C[As](C)SC[C@H](NC(=O)CC[C@H](N)C(=O)O)C(=O)NCC(=O)O [Darinaparsin] (first compound 0.006 µM, partner dose 0.4 µM) | 99.3% | 86.8% | 83.2% | 98.9% | 87.8% | 111%
6 | Cn1c(Nc2ccc(C(F)(F)F)cc2)nc2cc(Oc3ccnc(-c4ncc(C(F)(F)F)[nH]4)c3)ccc21 + Cc1cc(SCc2sc(-c3ccc(C(F)(F)F)c(F)c3)nc2C)ccc1OCC(=O)O [GW0742] (first compound 0.08 µM, partner dose 2 µM) | 47.4% | 71.8% | 67.1% | 40.2% | 77.1% | 114%
7 | Cc1nc(Nc2ncc(C(=O)Nc3c(C)cccc3Cl)s2)cc(N2CCN(CCO)CC2)n1 [dasatanib] + C/C(O)=C(\C#N)C(=O)Nc1cc(Br)ccc1Br [LFM-A13] (first compound 0.004 µM, partner dose 2 µM) | 65% | 87.7% | 60% | 103% | 98.4% | 87%
8 | COc1cc(N2CCC(N3CCN(C)CC3)CC2)ccc1Nc1ncc(Cl)c(Nc2ccccc2S(=O)(=O)C(C)C)n1 + O=C(Oc1ccc([N+](=O)[O-])cc1)N1CCC(C(O)(c2ccc3c(c2)OCO3)c2ccc3c(c2)OCO3)CC1 [JZL184] (first compound 0.08 µM, partner dose 1 µM) | 94% | 87.6% | 84.2% | 88% | 83.7% | 66.6%
9 | O=C(O)c1ccc2c(c1)nc(Nc1cccc(Cl)c1)c1ccncc12 + O=C(Oc1ccc([N+](=O)[O-])cc1)N1CCC(C(O)(c2ccc3c(c2)OCO3)c2ccc3c(c2)OCO3)CC1 [JZL184] (first compound 0.4 µM, partner dose 1 µM) | 107% | 84.6% | 105% | 76.6% | 105% | 99.8%
10 | CC(C)C[C@H](NC(=O)[C@H](Cc1ccccc1)NC(=O)c1cnccn1)B(O)O [Bortezomib] + C/C(O)=C(\C#N)C(=O)Nc1cc(Br)ccc1Br [LFM-A13] (first compound 0.001 µM, partner dose 2 µM) | 97.6% | 33.9% | 77.7% | 82.1% | 23.2% | 84.1%
11 | O=C(O)c1ccc2c(c1)nc(Nc1cccc(Cl)c1)c1ccncc12 + C[As](C)SC[C@H](NC(=O)CC[C@H](N)C(=O)O)C(=O)NCC(=O)O [Darinaparsin] (first compound 0.4 µM, partner dose 0.4 µM) | 98.9% | 87.3% | 80.7% | 75.1% | 112% | 86%
12 | COc1cc2ncnc(Nc3ccc(Oc4ccccc4)cc3)c2cc1OC + C/C(O)=C(\C#N)C(=O)Nc1cc(Br)ccc1Br [LFM-A13] (first compound 2 µM, partner dose 2 µM) | 113% | 105% | 89.3% | 114% | 90.6% | 124%
13 | CC(C)C[C@H](NC(=O)[C@H](Cc1ccccc1)NC(=O)c1cnccn1)B(O)O [Bortezomib] + Cc1cc(SCc2sc(-c3ccc(C(F)(F)F)c(F)c3)nc2C)ccc1OCC(=O)O [GW0742] (first compound 0.001 µM, partner dose 2 µM) | 94.8% | 20.4% | 79.8% | 111% | 19.4% | 95.2%
14 | O=C(O)C(=O)Nc1sc2c(c1C(=O)O)CCNC2 + C/C(O)=C(\C#N)C(=O)Nc1cc(Br)ccc1Br [LFM-A13] (first compound 1.66667 µM, partner dose 2 µM) | 102% | 110% | 66.4% | 118% | 92.8% | 90.7%
15 | Cn1c(Nc2ccc(C(F)(F)F)cc2)nc2cc(Oc3ccnc(-c4ncc(C(F)(F)F)[nH]4)c3)ccc21 + C/C(O)=C(\C#N)C(=O)Nc1cc(Br)ccc1Br [LFM-A13] (first compound 0.08 µM, partner dose 2 µM) | 58.6% | 68.4% | 60% | 59.5% | 52.8% | 101%
16 | Nc1ccn([C@@H]2O[C@H](CO)[C@@H](O)C2(F)F)c(=O)n1 [gemcitabine] + Cc1cc(SCc2sc(-c3ccc(C(F)(F)F)c(F)c3)nc2C)ccc1OCC(=O)O [GW0742] (first compound 0.0004 µM, partner dose 2 µM) | 91.8% | 95.8% | 69.8% | 96.4% | 59.8% | 98.6%
17 | C#Cc1cccc(Nc2ncnc3cc(OCCOC)c(OCCOC)cc23)c1 [erlotinib] + Cc1cc(SCc2sc(-c3ccc(C(F)(F)F)c(F)c3)nc2C)ccc1OCC(=O)O [GW0742] (first compound 0.8 µM, partner dose 2 µM) | 90.1% | 84.8% | 76.8% | 105% | 82.7% | 114%
18 | C=CCn1c(=O)c2cnc(Nc3ccc(N4CCN(C)CC4)cc3)nc2n1-c1cccc(C(C)(C)O)n1 + O=C(Oc1ccc([N+](=O)[O-])cc1)N1CCC(C(O)(c2ccc3c(c2)OCO3)c2ccc3c(c2)OCO3)CC1 [JZL184] (first compound 0.02 µM, partner dose 1 µM) | 89.5% | 44.8% | 79.2% | 80.4% | 42.7% | 113%
19 | O=C(O)c1ccc2c(c1)nc(Nc1cccc(Cl)c1)c1ccncc12 + Cc1cc(SCc2sc(-c3ccc(C(F)(F)F)c(F)c3)nc2C)ccc1OCC(=O)O [GW0742] (first compound 0.4 µM, partner dose 2 µM) | 120% | 96.6% | 92.5% | 83% | 99.4% | 111%
20 | CN1CCN(c2ccc3nc(-c4c(N)c5c(F)cccc5[nH]c4=O)[nH]c3c2)CC1 [Dovitinib] + C/C(O)=C(\C#N)C(=O)Nc1cc(Br)ccc1Br [LFM-A13] (first compound 0.1 µM, partner dose 2 µM) | 101% | 107% | 85.8% | 95% | 84.5% | 116%
21 | CN1CCN(c2ccc3nc(-c4c(N)c5c(F)cccc5[nH]c4=O)[nH]c3c2)CC1 [Dovitinib] + O=C(Oc1ccc([N+](=O)[O-])cc1)N1CCC(C(O)(c2ccc3c(c2)OCO3)c2ccc3c(c2)OCO3)CC1 [JZL184] (first compound 0.1 µM, partner dose 1 µM) | 87.7% | 88% | 76% | 80.7% | 100% | 102%
22 | CC(C)C[C@H](NC(=O)[C@H](Cc1ccccc1)NC(=O)c1cnccn1)B(O)O [Bortezomib] + N.N.[Cl][Pt][Cl] [cisplatin] (first compound 0.001 µM, partner dose 1.6 µM) | 107% | 37.8% | 77.5% | 93.7% | 26.2% | 54.3%
23 | C[C@@H]1CCN(C(=O)CC#N)C[C@@H]1N(C)c1ncnc2[nH]ccc12 + O=C(Oc1ccc([N+](=O)[O-])cc1)N1CCC(C(O)(c2ccc3c(c2)OCO3)c2ccc3c(c2)OCO3)CC1 [JZL184] (first compound 1 µM, partner dose 1 µM) | 100% | 93.7% | 94.2% | 102% | 130% | 107%
24 | c1cc(-c2cnn3cc(-c4ccc(OCCN5CCCCC5)cc4)cnc23)ccn1 [Dorsomorphin] + O=C(Oc1ccc([N+](=O)[O-])cc1)N1CCC(C(O)(c2ccc3c(c2)OCO3)c2ccc3c(c2)OCO3)CC1 [JZL184] (first compound 0.4 µM, partner dose 1 µM) | 100% | 124% | 92.5% | 90.3% | 104% | 91.4%
25 | C[C@@H]1CCN(C(=O)CC#N)C[C@@H]1N(C)c1ncnc2[nH]ccc12 + Cc1cc(SCc2sc(-c3ccc(C(F)(F)F)c(F)c3)nc2C)ccc1OCC(=O)O [GW0742] (first compound 1 µM, partner dose 2 µM) | 102% | 101% | 100% | 133% | 108% | 116%
26 | Oc1cc(-c2nc(-c3ccccc3)[nH]c2-c2ccncc2)ccc1Cl + C/C(O)=C(\C#N)C(=O)Nc1cc(Br)ccc1Br [LFM-A13] (first compound 0.2 µM, partner dose 2 µM) | 71.8% | 112% | 89% | 60.1% | 106% | 99.2%
